The list shows a part of the results. At the low end of the ranking, values are background and their order means little.

For this test, the target named is SIX1-Q177R homeodomain (UniProt Q15475). Put plainly: universal protein binding microarray. To be noted: Universal all-10-mer PBM (8x60K, AMADID 030236), 300 nM GST-tagged protein, Alexa Fluor 488 anti-GST; buffer, salt, pH and temperature not stated; high values mean tight binding; most listed sequences are background and not binding sites; double strand, one strand shown.
CCAGATGG: the binding signal was -0.0118 E-score.
Turning to GTGATGAA, the binding signal is -0.197 E-score.
Regarding CTCGAAAC, the binding signal was -0.157 E-score.
CTACGGTA: the binding signal is 0.00271 E-score.
For ATGGATAC, the binding signal was determined as 0.278 E-score.
For TAGTAGCA, the binding signal is 0.159 E-score.
For the sequence GTAGTATA, the binding signal is 0.0458 E-score.
With CCGGAATA, the binding signal turned out to be 0.0294 E-score.
With AGACCCAC, the binding signal is -0.116 E-score.
Next, AGTTGTAC: 0.0218 E-score; TCGACAAA: -0.115 E-score.
In the case of ATTGAGGC, the binding signal was -0.237 E-score.
GCGTAGTA: the binding signal was -0.0758 E-score.
With AGACATAA, the binding signal is -0.0483 E-score.
In the case of TTAGCAAA, the binding signal turned out to be 0.0029 E-score.
Regarding ATACGGAC, the binding signal was found to be 0.0466 E-score.
As to CACTCACG, the binding signal was 0.222 E-score.
Turning to CGTGGTTA, the binding signal is -0.0901 E-score.
Take CCCAGCCG: the binding signal was found to be 0.0778 E-score.
As for ACGTCGGG, the figure is 0.143 E-score; as for AGCGGGAA, -0.302 E-score; as for GAGCACGC, 0.104 E-score.
As for GCTGTAAA, the figure is -0.39 E-score; as for AATATTGG, 0.0973 E-score.
As for GAAGGGTA, the binding signal was 0.169 E-score.
For the sequence AACAAAGG, the binding signal is -0.131 E-score.
For AGATGCGC, the binding signal was -0.26 E-score.
GGCTCAGA: the binding signal was 0.0505 E-score.
Take GCTTAGTA: the binding signal was determined as 0.0166 E-score.
For TGGAGCCA, the binding signal was -0.151 E-score.
As to ACAGACTC, the binding signal is -0.14 E-score.
As for CATGTCGC, the figure is 0.145 E-score; as for CCGAAAAG, -0.0765 E-score.
For ATTTCCGG, the binding signal is -0.0158 E-score.
Take GGACTGCC: the binding signal is -0.0957 E-score.
As for CCGTAAGG, the figure is -0.0914 E-score; as for ACGTGACG, -0.0125 E-score; as for GGGTATCA, 0.39 E-score.
CGCTAGAA: the binding signal was -0.214 E-score.
In the case of CGACATCG, the binding signal is -0.0467 E-score.
Next, CAGTAATC: -0.106 E-score; ACGTCCGC: -0.203 E-score.
As to AGGTCATA, the binding signal was -0.193 E-score.
For the sequence AAATAACT, the binding signal turned out to be 0.0176 E-score.
In the case of ATTCCCAG, the binding signal is -0.136 E-score.
For the sequence CAGTCGTA, the binding signal is -0.174 E-score.
As to CAATCGAG, the binding signal is -0.019 E-score.
Consider CACCGTGC, for which the binding signal came to 0.327 E-score.
CTTTTAGA: the binding signal was -0.327 E-score.
As to AGTTAGAA, the binding signal is -0.013 E-score.
GGGAAGTA: the binding signal was -0.173 E-score.
Take AACGGGAC: the binding signal was -0.0336 E-score.
Next, TCCGAGCA: -0.102 E-score; AGGTAGTC: -0.15 E-score.
In the case of GACTATTA, the binding signal was -0.121 E-score.
As to CCAAAGAC, the binding signal was -0.0792 E-score.
With CGCCCCAA, the binding signal turned out to be 0.0537 E-score.
For GATGCTCC, the binding signal was -0.234 E-score.
For TGTCATAA, the binding signal is 0.199 E-score.
As to AAAAATCA, the binding signal was -0.0976 E-score.
Regarding AACGAACT, the binding signal was -0.239 E-score.
As for ACCGTTCT, the figure is -0.0363 E-score; as for AAGGAGAT, -0.23 E-score.
Take GAATCCCA: the binding signal was 0.0697 E-score.
As for GCTGCTCC, the figure is -0.108 E-score; as for GTCATCGA, 0.0437 E-score; as for ATGATCTG, 0.0531 E-score.
Turning to AGCACCAC, the binding signal turned out to be 0.272 E-score.
Consider ATTATCCC, for which the binding signal is -0.0543 E-score.
As for ATGGGTAG, the binding signal stood at 0.139 E-score.
Next, TACTCACA: 0.0277 E-score; GAAAGTAC: -0.0609 E-score.
For the sequence CTAATATA, the binding signal was -0.00496 E-score.
For CAGGCCGG, the binding signal was -0.0398 E-score.
For TATGTTGA, the binding signal was -0.0868 E-score.
In the case of GACAATAA, the binding signal was -0.05 E-score.
Take ATTCAAAG: the binding signal was -0.364 E-score.
As to ATCTCAGG, the binding signal was -0.195 E-score.
With AAATTGCA, the binding signal is -0.178 E-score.
On to ATGGGATG, for which the binding signal was -0.15 E-score.
As for AGAAATGC, the figure is -0.00611 E-score; as for GCACGCGA, 0.0562 E-score; as for CGCGGCCG, -0.0482 E-score.
In the case of CCATGTGC, the binding signal was -0.0955 E-score.
Turning to GCGGGCCA, the binding signal was -0.133 E-score.
Next, AGACAGGG: 0.0258 E-score; GCCGCGTA: -0.0196 E-score.
Consider CCTTATTA, for which the binding signal is -0.0628 E-score.
On to ACACGGAA, for which the binding signal amounted to 0.398 E-score.
As for AAGCGTTA, the figure is -0.166 E-score; as for AACGTATC, -0.0789 E-score.
As for ACTTCGTC, the figure is -0.0524 E-score; as for AGCGAGGG, 0.102 E-score; as for AGCACCTA, 0.0399 E-score.
As for AGCTCTAT, the binding signal is -0.125 E-score.
Take CCGCGGTC: the binding signal was -0.0471 E-score.
Turning to AGCCCTTC, the binding signal was -0.249 E-score.
For CTACTTTA, the binding signal was -0.224 E-score.
As for GCGAATCA, the figure is -0.259 E-score; as for AATCACAC, 0.348 E-score; as for ACGTGAGC, -0.191 E-score.
Next, AACTCCTT: -0.125 E-score; ACGCCCTC: 0.119 E-score; GTCCGGAC: -0.00607 E-score.
Take GTGTCTCA: the binding signal was 0.371 E-score.
As to GGTGGAAC, the binding signal was -0.168 E-score.
With AGCTACGC, the binding signal was -0.105 E-score.
Regarding CTCAATCA, the binding signal is -0.151 E-score.
Take GAGAGTAA: the binding signal is -0.0729 E-score.
CTGAAACA: the binding signal is -0.0361 E-score.
Consider GCAATTGA, for which the binding signal is -0.0892 E-score.
Next, AGTACATG: 0.00515 E-score.
As for AGAAACAA, the figure is -0.274 E-score; as for ACGCGTGA, 0.0924 E-score; as for GTGAGCGA, 0.00318 E-score.
Consider ACAGTGCC, for which the binding signal was -0.112 E-score.
TAGGTTGA: the binding signal is -0.0145 E-score.
Turning to CTGAGCAA, the binding signal is -0.137 E-score.
For the sequence GTATGAGA, the binding signal is 0.00311 E-score.
Consider CAGGCGCG, for which the binding signal is -0.203 E-score.
On to AGAGGTGG, for which the binding signal was -0.182 E-score.
For ATATGAGA, the binding signal was 0.0136 E-score.
Take ATCCGGCC: the binding signal was -0.0711 E-score.
As to AGTGGAAC, the binding signal was -0.0477 E-score.
With ATAAATCG, the binding signal is -0.326 E-score.
With CAAGAGGA, the binding signal was -0.148 E-score.
As to ATTGTCTC, the binding signal is -0.219 E-score.
Next, AAAGACGC: -0.186 E-score; TCCGTCGA: -0.083 E-score.
As to GCTTCAAA, the binding signal is -0.21 E-score.
On to CCAGGTAG, for which the binding signal was 0.0625 E-score.
For ACGTGATC, the binding signal turned out to be 0.0996 E-score.
As to GCCTCGTA, the binding signal was -0.134 E-score.
Next, CCCTCTCA: -0.0263 E-score; ACACGCGA: 0.369 E-score; AAGCCCCC: -0.126 E-score.
Next, CGCGGGGC: -0.0476 E-score; GTTGTTTA: 0.0202 E-score.
TGTAAAAA: the binding signal amounted to 0.0846 E-score.
For AACTACGC, the binding signal worked out at 0.00745 E-score.
On to GTGTAGAA, for which the binding signal is 0.427 E-score.
Next, ACCCGCGT: 0.229 E-score; GCTTTTTA: -0.242 E-score; AATTTCCA: 0.0255 E-score.
Regarding CCGTTTCA, the binding signal is 0.0765 E-score.
For the sequence CAGCTCCC, the binding signal was -0.032 E-score.
As to GCCGCCAC, the binding signal was -0.0223 E-score.
As to ATTATGCG, the binding signal is -0.0604 E-score.
For AGTTCATG, the binding signal is -0.0645 E-score.
Turning to ATTGAGTG, the binding signal was found to be 0.18 E-score.
Regarding GTGGCTAA, the binding signal is -0.0849 E-score.
Turning to ACGGAAGT, the binding signal was -0.121 E-score.
Regarding CGATGGTA, the binding signal was -0.223 E-score.
On to CAGTCTGA, for which the binding signal is -0.144 E-score.
As for ACCTTTAT, the binding signal is -0.0534 E-score.
As to AATCCGGA, the binding signal was found to be 0.0699 E-score.
As for ACTTGAAT, the figure is -0.0688 E-score.
CCCTTATC: the binding signal is -0.00344 E-score.
With CACACAAC, the binding signal came to 0.153 E-score.
Regarding AACTTTAT, the binding signal was -0.127 E-score.
As for GACGCACC, the figure is 0.118 E-score.
As for AATCCGAA, the binding signal was -0.139 E-score.
Take ATAATTCA: the binding signal was -0.0898 E-score.
Next, ACATTAAC: 0.0664 E-score; GCGGCCAA: -0.0563 E-score; CATACAAA: -0.211 E-score.
As for AGTGTATC, the binding signal was 0.399 E-score.
Next, AACACCCG: 0.466 E-score; CTGGAAGC: -0.139 E-score.
For TAATCTAA, the binding signal is -0.213 E-score.
As for GGGGTAAC, the figure is 0.293 E-score; as for ACTCACAT, -0.0446 E-score.

The record behind these values is article PMC10668032.
